# Results reported in publication PMC4336329 (PLoS ONE, 2015).
# Screen size: about 310,000 compounds; about 14,000 (4.5%) showed an effect of 50% or more. Effects have a minus sign here. The list shows a part of the results.
# Target: human ether-à-go-go-related gene (hERG) potassium channel (human, UniProt Q12809)
# Assay: primary screen, population patch clamp on CHO cells stably expressing hERG
# 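Further: peak tail current of the secondary pulse compared with the same well before compound.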
# human ether-à-go-go-related gene (hERG) potassium channel, sequence (Q12809 whole entry, looked up): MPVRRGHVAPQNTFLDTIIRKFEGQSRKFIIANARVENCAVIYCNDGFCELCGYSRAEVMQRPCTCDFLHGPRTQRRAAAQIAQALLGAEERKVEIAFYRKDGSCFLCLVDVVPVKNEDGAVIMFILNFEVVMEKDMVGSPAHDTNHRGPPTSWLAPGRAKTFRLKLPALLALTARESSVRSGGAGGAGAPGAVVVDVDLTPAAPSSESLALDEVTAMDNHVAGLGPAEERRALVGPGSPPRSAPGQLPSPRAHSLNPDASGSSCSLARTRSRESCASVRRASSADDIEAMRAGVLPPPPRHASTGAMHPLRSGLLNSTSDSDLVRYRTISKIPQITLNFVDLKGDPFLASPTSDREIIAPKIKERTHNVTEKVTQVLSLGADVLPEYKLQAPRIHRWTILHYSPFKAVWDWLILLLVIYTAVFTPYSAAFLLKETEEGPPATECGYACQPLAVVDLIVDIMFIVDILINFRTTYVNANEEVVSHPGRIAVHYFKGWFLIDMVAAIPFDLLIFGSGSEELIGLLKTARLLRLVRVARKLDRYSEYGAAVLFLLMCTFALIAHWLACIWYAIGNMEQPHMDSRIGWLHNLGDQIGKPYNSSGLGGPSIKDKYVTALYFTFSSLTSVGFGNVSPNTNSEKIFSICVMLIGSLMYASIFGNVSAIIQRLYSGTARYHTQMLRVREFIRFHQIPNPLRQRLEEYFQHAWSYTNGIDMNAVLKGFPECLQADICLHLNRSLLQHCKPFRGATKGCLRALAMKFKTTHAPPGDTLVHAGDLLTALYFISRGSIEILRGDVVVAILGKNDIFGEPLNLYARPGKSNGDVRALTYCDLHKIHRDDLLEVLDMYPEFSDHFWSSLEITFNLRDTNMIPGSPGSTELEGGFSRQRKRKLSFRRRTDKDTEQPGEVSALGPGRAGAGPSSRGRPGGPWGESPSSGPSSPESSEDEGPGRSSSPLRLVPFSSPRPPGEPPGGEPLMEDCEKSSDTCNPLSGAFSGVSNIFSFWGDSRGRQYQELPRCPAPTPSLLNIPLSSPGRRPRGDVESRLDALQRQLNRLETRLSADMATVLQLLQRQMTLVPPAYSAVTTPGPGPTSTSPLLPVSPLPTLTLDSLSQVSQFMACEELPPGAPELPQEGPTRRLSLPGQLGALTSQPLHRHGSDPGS
row,Compound,"hERG current change (%, negative = inhibition) at 10uM"
1,COC/C=C/C1=CC2=CC(=O)C(C)(OC(=O)c3cnc4ccccc4n3)C(=O)C2=CN1CCc1ccccn1 (stereo not shown),13.2%
2,CS(=O)(=O)N(CC(=O)NCCc1ccccc1)c1cccc([N+](=O)[O-])c1,-14.7%
3,Cc1ccc(S(=O)(=O)N(C)C)cc1NC(=O)CSc1nc2ccccc2[nH]1,-29.4%
4,CN1CCN(c2ccc([N+](=O)[O-])c(N3CCCCC3)c2)CC1,-3.78%
5,CN1CCN(CC(=O)N(C)c2nc(-c3ccccc3)cs2)CC1,-33.8%
6,CC(=O)c1ccc(N2CCN(C(=O)/C=C/c3ccc(S(=O)(=O)NCc4ccco4)cc3)CC2)cc1,-36.9%
7,O=C(NCC1(N2CCOCC2)CCCCC1)c1ccc(Cl)c(S(=O)(=O)NCc2ccco2)c1,-52.1%
8,COc1cc(CN2CCNC(=O)C2CC(=O)NCCc2ncccc2C)cc(OC)c1 (stereo not shown),8.78%
9,Cl.O=C(CN1CCC(O)CC1)N1c2ccccc2C=Cc2ccccc21,-0.289%
10,COc1cccc(-c2noc(CCCC(=O)NC3CCCC3)n2)c1,2.42%
11,O=C(CN1CCN(Cc2ccccc2)CC1)NCCNc1ccc([N+](=O)[O-])cn1,-40.5%
12,C[C@H](NC(=O)C1CC(=O)N(c2ccc3c(c2)OCCO3)C1)C(=O)NC1CCCC1 (stereo partly shown),12.8%
13,COc1ccc(CNC(=O)c2onc(C)c2Cl)cc1,10.8%
14,O=c1[nH]c(-[n+]2ccccc2)c(/C=N/NC([S-])=Nc2ccccc2)s1,31.1%
15,COc1ccc(OC)c(C2CC(=O)Nc3n[nH]c(-c4ccccc4)c32)c1 (stereo not shown),9.86%
16,COc1ccc(CNC(=S)Nc2cc(C)ccc2C)cc1,-5.62%
17,O=c1cc(-c2ccccc2)nc(SCCOc2ccccc2Cl)[nH]1,21.5%
18,CCN(CC)S(=O)(=O)c1cccc(-c2nnc(SC(C)C#N)n2Cc2ccccc2)c1 (stereo not shown),-7.34%
19,CCCCCc1nnc(NC(=O)CN2C(=O)C3CCCCC3C2=O)s1 (stereo not shown),-7.75%
20,CN(CC(=O)Nc1c(Cl)cccc1Cl)C(=O)c1ccccc1-c1nc2ccccc2s1,-15.1%
21,Cl.c1ccc2c(c1)CC(N1CCCCC1)c1ccccc1S2 (stereo not shown),9.15%
22,Cc1cc(C(=O)CSc2nncs2)c(C)n1-c1c(C)n(C)n(-c2ccccc2)c1=O,10.7%
23,CCCCCc1ccc(-c2ccc(/C=C/C(=O)O)cc2)nc1,0.61%
24,C=CC[N+]1(C)C2CCC1CC(O)C2.[Br-] (stereo not shown),2.77%
25,CSc1nsc2nc(=O)c(/C=C3\C(C)=Nc4ccc(C)cc43)c(N)n12,18.1%
26,CC1CCN(Cc2ccc(-c3nnn(CC(=O)NC4CCCCC4)n3)cc2)CC1,-6.52%
27,CCOc1ccc(N(C(C)=O)C2C=CS(=O)(=O)C2)cc1 (stereo not shown),-1.74%
28,CCN(CC(=O)NCc1cccs1)C(=O)c1ccc(S(=O)(=O)Nc2ccccc2F)cc1,-21.4%

row,Compound,"hERG current change (%, negative = inhibition) at 10uM"
1,Cc1c(C(=O)N2CCN(c3ccccc3)CC2)sc2ncnc(N3CCC(C)CC3)c12,-29.9%
2,COc1ccc(N2CCN(S(=O)(=O)c3ccc(OC)cc3)CC2)cc1,5.01%
3,COc1ccc(C2=NOC(Cn3nc(C(=O)NCc4ccco4)cc3-c3ccccc3)C2)cc1 (stereo not shown),-68.2%
4,CCCCC12CN3CC(C)(CN(C1)C3c1ccc([N+](=O)[O-])o1)C2=O (stereo not shown),-49.5%
5,O=C(Nc1cccnc1)c1c(O)c2c(n(Cc3ccccc3)c1=O)CCCC2,2.61%
6,CC(=O)NC(Cc1cccc(F)c1)C(=O)NC1CCN(c2ncccc2[N+](=O)[O-])CC1 (stereo not shown),19.7%
7,COC(=O)C1=C(c2ccc(F)cc2F)C[C@@H]2CC[C@H]1N2C(=O)NCCOc1ccc(OC)cc1,-14%
8,CC(Oc1ccc2ccccc2c1)C(=O)NNC(=O)Nc1ccccc1F (stereo not shown),19.5%
9,CCCCCNC(=O)c1c[nH]c2ccc(S(=O)(=O)N3CCC4(CC3)OCCO4)cc2c1=O,9.75%
10,O=C(Nc1ccc(F)c(S(=O)(=O)N2CCOCC2)c1)C1CCCCC1,5.03%
11,CCCc1ccc(Oc2cc(Cl)nc(N)n2)cc1,-6.28%
12,Cc1ccc(OCCCC(=O)NNC(=O)c2ccncc2)cc1,-0.766%
13,CC(CN1CCCC1)OC(=O)c1ccc(Br)cc1.Cl (stereo not shown),-25.2%
14,COc1ccc(OC)c(C2CC(=O)c3c([nH]c(C(=O)OCC4CCCO4)c3C)C2)c1 (stereo not shown),3.54%
15,COc1ccc(NC(=O)Nc2ccc3nsnc3c2)cc1,2.7%
16,CC(=O)N1N=C2C3CCN(CC3)C2C1c1ccc(F)cc1 (stereo not shown),1.27%
17,N#C/C(=C\c1ccc(OCC(N)=O)cc1)C(=O)NC1CC1,1.35%
18,CC(Oc1ccccc1)C(=O)N1CCCc2ccccc21 (stereo not shown),-12.6%
19,COC(=O)c1ccc(C(=O)N2CCCC(N3CCN(c4ccccc4)CC3)C2)nc1 (stereo not shown),-22.4%
20,O=C(NCc1ccc(F)cc1)N1CCN(S(=O)(=O)c2ccccc2F)CC1,9.1%
21,Cc1cccc(N2CCN(C(=O)c3cc(=O)[nH]c4ccccc34)CC2)c1C,-15.1%
22,O=C(NCC(F)(F)F)Nc1ncccn1,17.1%
23,Cn1nnnc1SCC(=O)Nc1ccccc1C(=O)NC1CC1,7.04%
24,Cc1cc(S(=O)(=O)N2CCCc3ccccc32)ccc1-n1cnnn1,-7%
25,COc1ccc(CCNC(=O)COc2ccc3c(C)cc(=O)oc3c2)cc1OC,13.7%
26,O=C(CCc1c[nH]c2ccccc12)NCCc1ccccc1,8.67%
27,Cn1c(=N)c(S(=O)(=O)c2ccc(F)cc2)cc2c(=O)n3ccccc3nc21,1.33%
